Experimental data as given in the supplement of paper PMC3334620.
Whole data set: some 33,000 sequences, median “E-score (-0.5 to 0.5)” near -0.012, cut for the highest 2% near 0.29. The list shows a part of the results.

What follows are sequences tested against T1, Ybr033w (UniProt P38073) (assay: PBM E-score (8-mer binding enrichment) (E-score (-0.5 to 0.5)); higher = stronger / more preferred TF binding; most listed sequences are background and not binding sites). Settings: protein concentration: 200 nM; construct: GST-full length.
T1 sequence: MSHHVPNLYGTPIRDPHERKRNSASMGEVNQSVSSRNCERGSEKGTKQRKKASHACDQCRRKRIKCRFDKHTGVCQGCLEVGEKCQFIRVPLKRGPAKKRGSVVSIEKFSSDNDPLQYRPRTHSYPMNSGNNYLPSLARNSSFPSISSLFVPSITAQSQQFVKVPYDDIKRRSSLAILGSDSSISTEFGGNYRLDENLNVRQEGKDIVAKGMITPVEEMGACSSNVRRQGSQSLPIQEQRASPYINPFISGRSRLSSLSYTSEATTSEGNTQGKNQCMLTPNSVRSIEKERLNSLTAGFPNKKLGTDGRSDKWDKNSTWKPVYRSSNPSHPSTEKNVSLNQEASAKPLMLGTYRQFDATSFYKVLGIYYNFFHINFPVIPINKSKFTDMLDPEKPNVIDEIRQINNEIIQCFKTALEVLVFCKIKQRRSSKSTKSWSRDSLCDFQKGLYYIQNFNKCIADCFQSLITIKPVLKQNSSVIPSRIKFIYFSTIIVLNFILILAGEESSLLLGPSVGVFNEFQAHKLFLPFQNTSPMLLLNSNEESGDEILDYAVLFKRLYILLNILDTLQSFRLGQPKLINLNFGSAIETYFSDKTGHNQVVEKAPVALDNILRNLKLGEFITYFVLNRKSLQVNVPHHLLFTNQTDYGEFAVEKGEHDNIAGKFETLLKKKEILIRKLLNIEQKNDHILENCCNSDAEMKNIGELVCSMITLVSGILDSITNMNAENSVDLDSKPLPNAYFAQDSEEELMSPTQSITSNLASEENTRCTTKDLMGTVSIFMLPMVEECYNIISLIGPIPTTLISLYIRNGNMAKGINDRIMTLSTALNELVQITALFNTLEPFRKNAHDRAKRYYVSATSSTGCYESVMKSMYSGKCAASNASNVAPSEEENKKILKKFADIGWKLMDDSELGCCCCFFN
How it was run: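 Full-length yeast transcription factors or their DNA-binding domains, GST-tagged and expressed with PURExpress, were applied at about 100-200 nM to universal all-10-mer Agilent arrays. These arrays had been made double-stranded by primer extension on fresh or once-stripped slides. Detection used fluorescent anti-GST, normalisation used masliner, and E-scores for ungapped eight-base words pooled with reverse complements came from the Universal PBM Analysis Suite.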

| Sequence | PBM E-score |
| --- | --- |
| TATATACA | 0.24 |
| AGCAGACT | 0.00644 |
| AGGGCGAT | -0.196 |
| CCATATCC | -0.0724 |
| GCCTTCGC | -0.129 |
| CGTGCGAA | -0.0457 |
| ACCGCAGG | 0.052 |
| AACTTCTT | 0.167 |
| AACATAGA | -0.0138 |
| CATGTGAC | -0.0101 |
| ACGCGAAT | -0.0106 |
| GGACTAGA | -0.0912 |
| CTTAACCA | 0.185 |
| ATGAAGGC | 0.0345 |
| AGATGACC | -0.134 |
| CGCAAGCA | 0.0716 |
| CGCCCTCA | -0.209 |
| ACATGTAT | 0.248 |
| TAAACGAA | 0.138 |
| TATTAACA | 0.291 |
| AGAAGTGG | 0.0389 |
| GCACCTAA | 0.0093 |

| Sequence | PBM E-score |
| --- | --- |
| AGTCGGTG | -0.0636 |
| AATGCGAG | 0.291 |
| CACGATGG | -0.164 |
| ACCATTAT | -0.0466 |
| CGCGTCGC | -0.0746 |
| AAGGTAAA | 0.189 |
| TGACATAA | 0.204 |
| AACAATCT | 0.168 |
| ATAGTAGA | 0.158 |
| ACGATGCA | -0.0337 |
| AGTATCTG | -0.00576 |
| ACTGTTGA | 0.0498 |
| TATATGAA | 0.156 |
| GAGGTATA | 0.259 |
| ATGTTCAA | 0.0215 |
| CGAAAGCC | -0.307 |
| CAGGTTGG | -0.079 |
| ACAATGCA | 0.165 |
| CCGCACGG | -0.0878 |
| CCGCCTTA | -0.167 |
| CGTGGTTA | -0.0128 |
| AGTCCGTC | -0.104 |

| Sequence | PBM E-score |
| --- | --- |
| AAGACACG | -0.0957 |
| AGTACTAA | 0.156 |
| AAGTTCCT | 0.0578 |
| AGATTCCA | 0.207 |
| CAACTCAC | 0.106 |
| GCAGAATA | 0.0133 |
| ACGAGCCC | -0.205 |
| TGAACAAA | 0.284 |
| ATACCGAA | 0.126 |
| ATTCTATG | -0.02 |
| AGGATATG | 0.0735 |
| CAGTCTGG | -0.226 |
| ATACGGGC | -0.199 |
| ACGCACTA | 0.0377 |
| CTTTGCCC | -0.223 |
| AGCGCGGA | 0.0442 |
| ATCTATTA | 0.327 |
| AGACCCCC | -0.299 |
| CCCCTGAA | -0.119 |
| ATGTATGG | 0.0739 |
| CATCCAAG | -0.00818 |
| AAGGGTAG | -0.055 |

| Sequence | PBM E-score |
| --- | --- |
| CCTTCAAG | -0.0729 |
| AGCACGAT | 0.0621 |
| GCTAGTTA | 0.0912 |
| AGGGAGTA | -0.044 |
| CACGTTGC | -0.172 |
| AAGTTCAT | 0.252 |
| GAGCGCGC | -0.0206 |
| GGACCCCC | -0.37 |
| AGACCACC | -0.142 |
| ACTTGCAC | -0.14 |
| AGGTCGAC | 0.0882 |
| AGGCGGCC | -0.27 |
| AAACGTAT | 0.234 |
| GCGCAAAA | 0.177 |
| AAATGTGG | 0.171 |
| ACCGTAAA | 0.134 |
| ACTGGCAA | -0.141 |
| ATGGGGCG | -0.105 |
| TCTGGCCA | -0.17 |
| GCGATACC | -0.236 |
